This note sets out measurements from the RNAGym collection of RNA variant scans (doi:10.1101/gad.245936.114).

Variants at the background level are over-represented here. Bounds are passed on as bounds.

The labels stand for the following.
B1: tRNA (parent)
chain: CUCUCGGUAGCCAAGUUGGUUUAAGGCGCAAGACUUUAAUUUAUCACUACGAAAUCUUGAGAUCGGGCGUUCGACUCGCCCCCGGGAGAUUUUUUCCUCGAGCAA

The variants in this data set derive from B1. As to the kind of experiment: nonsense suppression (GFP-seq) (ratio to wild type); higher = more function; SUP4oc tRNA, yeast GFP reporter sort-seq. Put shortly: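 Yeast carrying genome-integrated SUP4oc tRNA variants from a library with ~3% random mutations were grown in raffinose/galactose medium with 80 mg/L adenine. Each strain also carried a galactose-driven GFP ochre reporter and RFP. Cells were sorted into GFP/RFP bins, and each bin was Illumina-sequenced (phred ≥30). Nonsense suppression (GFPSEQ) is the bin median GFP/RFP, weighted by each variant's estimated cell share per bin, relative to wild-type SUP4oc; variants needed ≥100 reads and ≥30 cells.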
Regarding U55A A60U C77U, the nonsense suppression is no more than 0.026.

As to C5G U35A U63A U76A C80G, the nonsense suppression is no more than 0.026.

On to A31C G67U C68A U76G, for which the nonsense suppression is no more than 0.026.

In the case of G7A G15C G18A G78A G84A A87U, the nonsense suppression is no more than 0.026. Next, C27G C68U: no more than 0.026. Next, U4G G32A: no more than 0.026; C5U U8A U35C U70G C80U: no more than 0.026. For the variant C12G U17A U22G A60G G88A, the nonsense suppression is no more than 0.026.

A9U G28U A62G U71G: the nonsense suppression is no more than 0.026. As for U17A G26A C34G, the nonsense suppression was no more than 0.026. Consider U21C U55G, for which the nonsense suppression is no more than 0.026. As to U76A G85U, the nonsense suppression stood at 0.0588. For the variant C27G G65U, the nonsense suppression is no more than 0.026. Next, A60G G66A: no more than 0.026.

For the variant U35G C68A, the nonsense suppression was no more than 0.026.

For the variant C34G A60G, the nonsense suppression was no more than 0.026. With U8C A9U C11U G19A A54G C68U A74G the figure was no more than 0.026. Next, G28U A31C G65C: no more than 0.026.

Consider A30U A60G U76G, for which the nonsense suppression was no more than 0.026. With G65A G73C A74C, the nonsense suppression was no more than 0.026. With G6A G10A G19C A54U G73C G88U the figure was no more than 0.026; with C27A G28C A31G C79A, no more than 0.026. Take G66A U71A: the nonsense suppression was no more than 0.026. As for G19C U22C C68U, the nonsense suppression is no more than 0.026. Next, C29A U35C G69C C79A: no more than 0.026; C11G A24G C68U U70C C72G C77G: no more than 0.026. Next, A33C A62C G67C: no more than 0.026; C12G G73C: no more than 0.026.

Consider C34A G86U, for which the nonsense suppression is no more than 0.026. Next, G6C G59C U70C C72U C79U: no more than 0.026; G59C U71C: no more than 0.026. Next, C11G G84U: no more than 0.026; C1G C79G: no more than 0.026; A9C U58C A60U A87C: no more than 0.026. Next, U8G U57C A60G G69C: no more than 0.026. Turning to A14C U16C G19A A23U C29U A30G C72G C82A, the nonsense suppression is no more than 0.026. With G6U C27G the figure was no more than 0.026; with U8C A33G G88C, no more than 0.026.

Regarding G7A G10A U21G A33G U58C A60U G61C, the nonsense suppression is no more than 0.026. Next, U4G C34A: no more than 0.026; A14C U35C: no more than 0.026. Next, U2C A24C A31G G84C: no more than 0.026; G18A C81G: no more than 0.026; A13G G32A: no more than 0.026. C3A G28A G73A A74G: the nonsense suppression was no more than 0.026. With C34G C56U C81G the figure was no more than 0.026; with A14C A33G, no more than 0.026; with U76G C80A, no more than 0.026.

For the variant A9U A31G U70C G73U C81U, the nonsense suppression is no more than 0.026.

In the case of U4C C5A U55C C81U, the nonsense suppression was no more than 0.026. With A30G C56A C77G the figure was no more than 0.026.

G19C G66C: the nonsense suppression was no more than 0.026. Next, U20C C29A C72U: no more than 0.026; G26A A60C C82G: no more than 0.026; U8G U58A: no more than 0.026. For the variant A9C U17A A30U G67U, the nonsense suppression is no more than 0.026. Next, G26A G65C: no more than 0.026. Next, A31C G59U G84A G88A: no more than 0.026; G6U C56U: no more than 0.026. Next, A23C A33G: no more than 0.026; C5A A60C: 0.0331. Regarding C11U U55G G66C, the nonsense suppression is no more than 0.026.

For the variant U8A C80G C83A, the nonsense suppression is no more than 0.026.

In the case of U55G G66U, the nonsense suppression was no more than 0.026.

Turning to A24U U76C, the nonsense suppression came to 0.131. With C3G A14U G86C the figure was no more than 0.026.

On to C29U G61C, for which the nonsense suppression turned out to be 0.0261. With C64U the figure was no more than 0.026; with G15U A30C G78A, no more than 0.026; with A54C U57C G61A, no more than 0.026.

On to A62U A89U, for which the nonsense suppression is no more than 0.026. Next, U16C G78A: 0.837; C3A U4A G10C A30C: no more than 0.026. Next, A23C G59C: no more than 0.026. Next, A23G A60C G61U: no more than 0.026; G18C A31U G59A: no more than 0.026; G67U G86C: no more than 0.026. As for A23C C56G G86C, the nonsense suppression is no more than 0.026. With C3U A13G C83A the figure was no more than 0.026; with U21A C79U, 0.444. With U4C G32C U76G C79G the figure was no more than 0.026; with U21C U71A C80A G84A, no more than 0.026. With A9C U20A the figure was 0.183; with C5U A62G C77G C80U, no more than 0.026. Regarding U2A C27U A31G U57C, the nonsense suppression was no more than 0.026.

In the case of A31G U63C C72A, the nonsense suppression is no more than 0.026. Consider C5G A24U G67C, for which the nonsense suppression was no more than 0.026.

As for A62G G69A, the nonsense suppression was no more than 0.026. With U2A A87G the figure was no more than 0.026; with C3U C56A A87U, no more than 0.026; with A30U G69U C80U, no more than 0.026. Next, G7C G32C U57G: no more than 0.026; C3U A23U U70G: no more than 0.026; C3A G19U: no more than 0.026. For U70C U71C, the nonsense suppression was no more than 0.026. Next, C3A U17C: no more than 0.026. Next, C3U A74C: no more than 0.026.

Turning to C1A U55C C72U A74G, the nonsense suppression is no more than 0.026. With G19C C77A the figure was no more than 0.026. With A31G C83U the figure was 0.0743; with G32C A60G, no more than 0.026.

With U55C G66C U71A G84C, the nonsense suppression is no more than 0.026. With A30C U55C the figure was no more than 0.026.

As to G19C G59U C72A, the nonsense suppression was no more than 0.026. With G6U G7U A74C the figure was no more than 0.026; with C3U A14C G25U U58A G69A, no more than 0.026; with G6U A24C, no more than 0.026. With C5G A87U the figure was no more than 0.026; with G10C A24U A30G A33U U55A C80U, no more than 0.026. With A9G U16G the figure was 0.551; with G18A C80G, no more than 0.026. G10A G32C G88C: the nonsense suppression was no more than 0.026. On to G6C U58G G65C G66A, for which the nonsense suppression was no more than 0.026.

U55G G78C G84C G86C: the nonsense suppression is no more than 0.026. With A9C C27A the figure was no more than 0.026; with U16A U22C A62G, no more than 0.026; with U4A C11G U71C G73A, no more than 0.026.

On to C29A G73C, for which the nonsense suppression is no more than 0.026. With A31U U57G C64U G69C G85C the figure was no more than 0.026; with U16C C77G, no more than 0.026; with U21A G65C U71A G78U, no more than 0.026. With G67U G78A the figure was no more than 0.026; with G7U G65A U76A, no more than 0.026.

For A9U A24U C34U, the nonsense suppression was no more than 0.026. Next, A23C G85U: no more than 0.026. Take A33C A54G: the nonsense suppression is no more than 0.026. Next, A13G G32A U35G: no more than 0.026; C34G U55A U57G: no more than 0.026.

Regarding G78U G88A, the nonsense suppression is no more than 0.026. In the case of U2G A14G G61U, the nonsense suppression is no more than 0.026.

As to A62U C79U C83G, the nonsense suppression was no more than 0.026. With C3U U16A the figure was 0.16. For the variant C79G, the nonsense suppression is no more than 0.026.

As for A9G U58A G61A G73U, the nonsense suppression is no more than 0.026. Next, C11U A62G U63A: no more than 0.026. With U16G C77U G85C G88U the figure was no more than 0.026; with C5A C64G, no more than 0.026. For the variant G26C C75U, the nonsense suppression was no more than 0.026. As for U8G U20G C82G, the nonsense suppression was no more than 0.026. With U17A U58A G59A G69U the figure was no more than 0.026; with C3G G88C, no more than 0.026; with A31C G73C, no more than 0.026. Next, C11A U58G G84U: no more than 0.026; G7C A13C: no more than 0.026; G10U G65A: no more than 0.026.

In the case of C3G A24U, the nonsense suppression was no more than 0.026. With G26A A62C U76A C81U the figure was no more than 0.026. As for G25C G28C A62U, the nonsense suppression is no more than 0.026.

For the variant A14C C75A, the nonsense suppression is no more than 0.026. With A14U U20A A74C C81A the figure was no more than 0.026; with C34G C80U, no more than 0.026; with A33G G59A A87G, no more than 0.026. With C5A A14C A24C G61U A87C the figure was no more than 0.026; with G7U G15U G84U A87C, no more than 0.026. With G28A U71G G86A the figure was no more than 0.026. On to C29G U57G, for which the nonsense suppression was no more than 0.026. With C1G U2C U55C G59A G66A U76A C82G the figure was no more than 0.026; with C3U C12A A13G G66C, no more than 0.026; with U8C U21A U55A C75G C82G G86A, no more than 0.026. Turning to A24U C34A C79G, the nonsense suppression is no more than 0.026. Next, A9U G15U U16G A31U C34U C75G C82A: no more than 0.026. With G65U C68U the figure was no more than 0.026. Consider C3U G59U, for which the nonsense suppression is no more than 0.026.

As for A31U G67C, the nonsense suppression was no more than 0.026. With G6C A31G A33U A60C G69U the figure was no more than 0.026; with C5G G6U G84A G88U A89U, no more than 0.026; with A13G U20G A24G, no more than 0.026.
